Results taken from the RNAGym collection of RNA variant scans (doi:10.1093/nar/gkz1192).
The source gives no read counts; variants with many changes may rest on few reads.

B1: CPEB3 Ribozyme (parent)
chain: UAACAGGGGGCCACAGCAGAAGCGUUCACGUCGCAGCCCCUGUCAGAUUCUGGUGAAUCUGCGAAUUCUGCUGUAUAUCUC

Variants of: B1
Assay: self-cleavage, relative activity (ratio to wild type); higher = more cleavage; in vitro, sequencing
Outline: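 After error-prone PCR and barcoding, CPEB3 ribozyme mutant libraries were transcribed with T7 RNA polymerase at 37°C for 5 hours, then given 15 min with DNase I before an EDTA stop, and they cleaved during both steps. Reverse transcription with template switching preceded Illumina sequencing. Relative activity divides a variant's cleaved/total read fraction by the unmutated ribozyme's. At least 5 reads were required per variant, and three batches were averaged.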
Variant UAACAGGGUGCCACAGCAGAAGCGUUCACGUCGCAGCCCCUGUCAGAUUCUGCUGAAUCUGCGGAUUCUGCUGUAUAUCUC [G9U G53C A64G] has a self-cleavage of 0.37. Work on UAACAGGGUGCCAUAGCAGAAGCGCUCACGUGGCAGCCCCAGUCAGAUUCUGGUGAAUCUGCGAAUUCUGCUGCAUAUCUC [G9U C14U U25C C32G U41A U74C] yielded a self-cleavage of 0.06. Variant UAACAGGGUGCCACAGCAGAAGCGUUUACGCCGCACCCCCUGUCAGAUUCUGGUGAACCUGCGAAUUCUGGUGUAUAUCCC [G9U C27U U31C G36C U58C C71G U80C] has a self-cleavage of 0.04. UAACAGGGUGCCACAGCAGAACCGUUCACGUCGCAGCCCCUGUCAGAUUCUGGUGAAUCUGCGAACUCUGCUGUAUAUCUC [G9U G22C U66C] gave a self-cleavage of 0.14. In the case of UAACAGGGUGCCACAGCAGAACCGCUCACGUCGCAGCCCCUGUCAGAUUCUGGUGGAUCUGCGAGUUCUGCUAUGUAUCUC [G9U G22C U25C A56G A65G G73A A75G], the self-cleavage is reported as 0.05. UAACAGGGUGCCACAGCAGAUUCGUUCACGUCGCAGCCCCUGUCCGAUUCUGGUGAAUUUGCGAAUUCUGCUGUAUAUCUC [G9U A21U G22U A45C C59U] showed a self-cleavage of 0.15. UAACAGGGUGCCACAGCAGAAGCGUUCACGUCGCAGCCCUUGUCAGGUUCUGGUGAAUCUGCGAAUUCUGCUGUAUAUCUC [G9U C40U A47G] showed a self-cleavage of 0.15. UAACAGGGUGCCACAGCAGAAGCGUUCGCGUCGCAGCCCCCGUCAGAUUCUGGCGAAUCUGCAAUUUCUGCUGUAUAUCUC [G9U A28G U41C U54C G63A A65U] showed a self-cleavage of 0.11. Work on UAACAGGGUGACACAGCAGAAGCGUUCACGUCGCAGCCCCUGUCAGAUUCUGGUGAAUCCGCGAAUUCUGCUGUAUAUCUC [G9U C11A U60C] yielded a self-cleavage of 0.06. Variant UAACAGGGUGCCACAGCAGAAGCGUUCGCGUCGCAGCCCCUGUCAGAUUCAGGUGAAUAUGCGAAUUCUGCUGUAUAUCUC [G9U A28G U51A C59A] has a self-cleavage of 0.05. UAACAGGGUGUCACAGCAGAAGCGUUCUCGUCGCAGCCCCUGUCAGAUUCAGGUGAAUCUGCGAAUUCCGCUGUAUAUCUC [G9U C11U A28U U51A U69C] showed a self-cleavage of 0.13. With UAACAGGGUGCCACAGCAGAAGCGUUCACGUCGCAGCCCCUGUCAAAUUCUGGUGGAUCUGCGAAUUCUGCUGUAUAUCUC [G9U G46A A56G] the self-cleavage was 0.15. Variant UAACAGGGUGCCACAGCAGAAGCGAUCACGUCGCAGCCCCUGUCAGAUUCUGGUGAAUCCGCGAAUUCUGCUGUAUACCAC [G9U U25A U60C U78C U80A] has a self-cleavage of 0.11. Variant UAACAGGGUGCCACAGCAGAGGCGUUCACGUCGCAGCCCCUGUCAGACUCUGGUGAAUAUGCGAGUUCUGCUGUAUAUCUC [G9U A21G U48C C59A A65G] has a self-cleavage of 0.1. In the case of UAACAGGGUGUCACAGCAGGAGCGUUCACGACGCAGCCCCUGUCAGAUUCUAGUGGAUCUGCGAAUUCUGCUGUAUAUCUC [G9U C11U A20G U31A G52A A56G], the self-cleavage is reported as 0.03. Variant UAACAGGGUGCCACAGCAGAAGCGUUCGCGUCGCAGCCCCUGUCAGAUGCUGGUGAAUCUGCGAAUUCUGCUGUAUAUCUC [G9U A28G U49G] has a self-cleavage of 0.05. In the case of UAACAGGGUGCCACAGCAGAAGCGUUCACGUCGGAGCCCCUGUCCGAUUCUGGUGAAUCUGCGAAUUAUGCUGUAUACCUC [G9U C34G A45C C68A U78C], the self-cleavage is reported as 0.05. For UAACAGGGUGCCACAGCAGAAGCGUUCACGUCGCAGCCCCUGUGAGAUUCUGGUGAAUCUGCGAAUCCUGCUGUACAUCUC [G9U C44G U67C U76C], the self-cleavage was 0.15. Work on UAACAGGGUGCCACAGCAGAGGCGUUCACGUCGCUGCCCCUGUCAGAUUCGGGUGAAUCUGCGAAAUCUGCUGUCUAUCUC [G9U A21G A35U U51G U66A A75C] yielded a self-cleavage of 0.03. UAACAGGGUGCCACAGCAGAAGCGUUCACGUCGCAGCCUCUGUCAGAUUCUGGUGGAUCUGCGAAUUCGGCUGUAUAUCUC [G9U C39U A56G U69G] gave a self-cleavage of 0.06. With UAACAGGGUGCCACAGCAGAGGCGUUCACAUCGCAGCCCCCGUCAGAUUCUGGUGAAUCUGCGAUUUCUGCGGUAUAUCUC [G9U A21G G30A U41C A65U U72G] the self-cleavage was 0.03. Variant UAACAGGGUGCCACAGCAGAAGCAUUCACGUCGCAGGCCCACUCAGAUUCUGGUGAAUCUGCGAAUUCUGCUGCAUAUCUC [G9U G24A C37G U41A G42C U74C] has a self-cleavage of 0.03. UAACAGGGUGCCACAGCAGAAGCGUUCACGUCGCAGCCUCUGUCAGAUUCUGGUGAAACCGCGAAUUCUGCUGUAUAUCUC [G9U C39U U58A U60C] gave a self-cleavage of 0.04. With UAACAGGGUGCCACAGCAGAAGCGUUCCCGUCGCAGCCCCUGGCAGAUUCUGGUGAAUCUGCGAAUUCUGCUGUAUACCUC [G9U A28C U43G U78C] the self-cleavage was 0.03. With UAACAGGGUGCAACAGCAGAAGCGUUCACGUCGCAGCCCCUGUCAGAUUCUGGUGAACCUGCGAAUUCUGCUGUAUAUCUC [G9U C12A U58C] the self-cleavage was 0.06. UAACAGGGUGCCACAGCAGAAGCGUUCACGUCGCCACCCCUGUCAGAUUCUGGUGAAUCUGCGAAUUCUGCUGUAUAUCCC [G9U A35C G36A U80C] showed a self-cleavage of 0.14. UAACAGGGUGCCACAGCAGAAGCGUUCACGUCGCGGCCCCUGUCAGAUUCUGGUGAAUCUGCGAAUUCUGCAGUAUGUCUC [G9U A35G U72A A77G] gave a self-cleavage of 0.11. Variant UAACAGGGUGCCACAGCAGAAGCGUUCUCGUCGCAGCCCCUGUCAGACUCUGGCGAAUCUGCGAAUUCUGCUGUGUGUCUC [G9U A28U U48C U54C A75G A77G] has a self-cleavage of 0.05. In the case of UAACAGGGUGCCACAGCAGAAGCGUUCUCGUCGCAGCCCCUGACAGGUUCGGAUGAAUCUGCGAAUUCUGCUGUACAUCUC [G9U A28U U43A A47G U51G G53A U76C], the self-cleavage is reported as 0.09. For UAACAGGGUGCCACAGCAGAAGCGUUCACGUCGCAGCCCCUGUCAGAUUCUGACGAACCCGCGGAUUCAGCUGUAUAUCUC [G9U G53A U54C U58C U60C A64G U69A], the self-cleavage was 0.08. UAACAGGGUGCCACAGCAGAAGCGUUCACGUCGCAGCCCCUGUCAGGUUCUGGUGAAUCUGAGAAUUCUGCUGUACAUCUC [G9U A47G C62A U76C] gave a self-cleavage of 0.09. With UAACAGGGUGCCACAGCAGAAGCGUUCACGUCGCGGCCCCUGUCAGAUUCUGGUGAAUCUGCGAAUUCUGCAGUAUAUCUC [G9U A35G U72A] the self-cleavage was 0.23. UAACAGGGUGCCACAGCAGAAGCGUUCACGUCGCAGCCCCUGUCGGAUUCUGGUGAAUCUGCGAAUCCUGCUGUAUACCUC [G9U A45G U67C U78C] showed a self-cleavage of 0.14. For UAACAGGGUGCCACAGCAGAAGCGUUCACGUCGCUGCCCCUGUCAGAUUCUGGUGAGUCUGCGAAUUCCGCUGUAUAUCUC [G9U A35U A57G U69C], the self-cleavage was 0.05.
